# Assay results: paper PMC4336329 (PLoS ONE, 2015)
# The campaign covered roughly 310,000 compounds. About 2,200 (0.71%) showed an effect of 50% or more. The effect is printed as a negative number. The list shows a part of the results.
# Biological target: human ether-à-go-go-related gene (hERG) potassium channel (human, UniProt Q12809)
# Assay: primary screen, population patch clamp on CHO cells stably expressing hERG
# Chain of human ether-à-go-go-related gene (hERG) potassium channel (Q12809 whole entry, looked up): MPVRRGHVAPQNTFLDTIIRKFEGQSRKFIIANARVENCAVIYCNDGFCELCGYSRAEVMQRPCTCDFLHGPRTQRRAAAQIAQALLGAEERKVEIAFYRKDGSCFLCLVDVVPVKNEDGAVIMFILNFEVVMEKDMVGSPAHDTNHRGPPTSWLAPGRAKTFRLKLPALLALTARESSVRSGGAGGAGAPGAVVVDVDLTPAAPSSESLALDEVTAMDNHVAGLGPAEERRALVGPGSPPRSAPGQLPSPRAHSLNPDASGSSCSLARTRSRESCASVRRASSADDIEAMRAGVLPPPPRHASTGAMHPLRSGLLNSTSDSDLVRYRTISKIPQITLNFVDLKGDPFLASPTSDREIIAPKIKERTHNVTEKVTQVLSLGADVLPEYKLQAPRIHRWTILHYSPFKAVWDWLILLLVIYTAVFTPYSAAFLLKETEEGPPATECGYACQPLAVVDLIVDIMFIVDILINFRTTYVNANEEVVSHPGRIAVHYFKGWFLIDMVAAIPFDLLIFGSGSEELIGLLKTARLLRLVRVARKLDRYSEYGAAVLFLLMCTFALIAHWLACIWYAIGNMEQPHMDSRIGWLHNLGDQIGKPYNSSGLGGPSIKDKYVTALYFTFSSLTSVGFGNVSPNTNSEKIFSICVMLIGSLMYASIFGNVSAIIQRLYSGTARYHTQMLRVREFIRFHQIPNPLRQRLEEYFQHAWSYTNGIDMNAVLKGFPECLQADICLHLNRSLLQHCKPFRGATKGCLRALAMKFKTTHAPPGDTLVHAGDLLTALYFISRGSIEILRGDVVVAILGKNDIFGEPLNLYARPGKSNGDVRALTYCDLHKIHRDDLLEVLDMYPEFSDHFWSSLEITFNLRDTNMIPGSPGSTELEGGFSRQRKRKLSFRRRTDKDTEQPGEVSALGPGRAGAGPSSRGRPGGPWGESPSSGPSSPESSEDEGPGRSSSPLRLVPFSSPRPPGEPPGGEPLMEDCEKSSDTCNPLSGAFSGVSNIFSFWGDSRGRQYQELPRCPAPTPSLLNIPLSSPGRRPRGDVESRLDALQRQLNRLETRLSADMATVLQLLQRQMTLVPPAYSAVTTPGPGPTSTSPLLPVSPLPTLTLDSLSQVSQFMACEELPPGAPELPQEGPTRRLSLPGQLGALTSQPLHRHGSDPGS
row,SMILES,"hERG current change (%, negative = inhibition) at 1uM [%]"
1,CC/C(=C\C(=O)c1cccnc1)Nc1ccc(C)c(C)c1,11
2,COc1ccc(Cl)c2sc(N3CCN(C(=O)c4ccco4)CC3)nc12,-0.11
3,CCOC(=O)c1ccc2c(c1)N(CC(=O)N1CCCC1)C(=O)C(C)(C)O2,2.6
4,COC(=O)c1ccc(NC(=O)COc2ccc(N(C)S(=O)(=O)c3ccc(C)cc3)cc2)cc1,3.77
5,CC(=O)Nc1cccc(-c2nc3ccccc3c(=O)o2)c1,16.6
6,CCNS(=O)(=O)c1c(C)cc(C)c(N(C)S(=O)(=O)c2ccccc2)c1C,6.53
7,COc1ccc(S(=O)(=O)N(CC(=O)NC2CC2)c2ccc(C)cc2)cc1OC,14.3
8,COc1ccc(-c2nnn(CC(=O)N(Cc3ccc(F)cc3)C(C(=O)NC3CCCC3)c3ccc(F)cc3)n2)cc1 (stereo not shown),13.1
9,COc1ccc(NC(=O)CNc2cccc(C#N)c2)cc1Cl,2.01
10,CCCc1ccc(-c2csc(NC(=O)C3=COCCO3)n2)cc1,10.3
11,CCOC(=O)C1(Cc2ccccc2Cl)CCN(C(=O)c2cnccn2)CC1,8.14
12,Cc1ccc(Nc2cc(C)nc3nnnn23)cc1,5.08
13,O=C(Nc1cccnc1Cl)c1cc(-c2ccccc2O)on1,11.5
14,C(=C\c1ccccc1)/CSc1nc2ncccc2[nH]1,15.8
15,O=C(Nc1cccc(C(=O)O)c1)/C(=C\c1ccc2c(c1)OCO2)NC(=O)c1ccc(Br)o1,7.49
16,O=C(CCCOc1ccc(Cl)cc1Cl)NCC1CCCO1 (stereo not shown),-0.378
17,CCN(C(=O)COC(=O)c1cc(S(=O)(=O)N2CCc3ccccc32)ccc1OC)C1CCS(=O)(=O)C1 (stereo not shown),9.92
18,C#CCNC(=O)C1=C[C@H](c2cn(C(C)=O)c3ccccc23)C[C@H](OCc2ccc(CO)cc2)O1,-3.97
19,Cc1c(C(=O)OCC(=O)N(C)c2ccccc2)oc2ccccc12,3.25
20,CN(C(=O)COC(=O)CNC(=O)c1sc2ccccc2c1Cl)c1ccccc1,8.54
21,COCCNC(=O)C(=O)N/N=C(\C)CC(=O)Nc1cccnc1,11
22,CC/C(=N\N=C(/CC)c1ccccc1N)c1ccccc1N,5.48

row,SMILES,"hERG current change (%, negative = inhibition) at 1uM [%]"
1,O=C(CSc1nc2ccccc2c(=O)[nH]1)Nc1ccccc1C(F)(F)F,6.47
2,Cc1cc(C(=O)Nc2ccccc2)oc1C,16.1
3,COc1ccc(-c2cc(C(F)(F)F)nc(SCC(=O)Nc3sc4c(c3C#N)CCC4)n2)cc1,10.4
4,O=C1CCCN1c1ccc(S(=O)(=O)Nc2cccnc2)cc1,7.05
5,CC1CCN(S(=O)(=O)N2CCC(C(=O)N3CCC(N(C)CC4CCCO4)CC3)CC2)CC1 (stereo not shown),2.62
6,CCOc1ccc(CCNC(=O)COC(=O)/C=C/c2cccc(OC)c2)cc1OCC,13.4
7,CCOC(=O)C[C@H]1c2ccccc2S(=O)(=O)N1Cc1cccc(C(F)(F)F)c1,6.93
8,Brc1ccc(Oc2nnnn2-c2ccccc2)cc1,11
9,COC(=O)c1noc(-c2ccc(OC)cc2)n1,-7.05
10,Cn1c(SCc2nc3ccccc3[nH]2)nnc1-c1ccccn1,9.14
11,Cc1cc(C)cc(NC(=O)c2nnn(Cc3cc(C)ccc3C)c2N)c1,-3.27
12,CCc1nc(SCC(=O)Nc2ccc(F)cc2F)c2c(=O)n(C)c(=O)n(C)c2n1,14.6
13,CCOC(=O)CN(C(=O)c1snc(C(N)=O)c1N)C(C(=O)NC1CCCCC1)c1ccc(F)cc1 (stereo not shown),10.7
14,CCOc1ccc(NC(=O)c2c(NC(=O)CNCCN3CCOCC3)sc3c2CCC3)cc1,-36.5
15,O=C(OCC(=O)N1CCN(C(=O)COC(=O)c2ccc(O)cc2O)CC1)c1ccc(O)cc1O,12.1
16,CCC(C)[C@H](NC(=O)NCC1CCCO1)C(=O)OC (stereo partly shown),14.5
17,Cc1[nH]c2ccc(OC(F)(F)F)cc2c1CCNCc1ccc(Cl)cc1.O=C(O)C(=O)O,6.01
18,CCCOc1ccc(/C(O)=C2\C(=O)C(=O)N(CCCOC)C23C(=O)N(C)c2ccccc23)cc1 (stereo not shown),15.8
19,CCn1c(SCCC(=O)Nc2ccccc2)nnc1-c1ccc(OC)cc1,7.77
20,COc1ccc(NC2CCCN(C(=O)CCC3=NNC(=O)CC3)C2)cc1 (stereo not shown),8.47
21,O=C(NCc1ccco1)c1sc2ccccc2c1Cl,5.73
22,Cc1nn(CCCC(=O)NCc2ccc(Cl)cc2)c(C)c1[N+](=O)[O-],-3.11

row,SMILES,"hERG current change (%, negative = inhibition) at 1uM [%]"
1,CC(C)(C)NCc1ccc(OCc2cccs2)cc1.Cl,5.41
2,C=CCN1C(=O)S/C(=C/c2ccc(Sc3nc4ccccc4[nH]3)o2)C1=O,11.1
3,O=C(Nc1ccc(C(=O)c2ccccc2)cc1)c1ccccc1,12
4,CN(CC(=O)Nc1ccc(S(N)(=O)=O)cc1)C1CCCCC1,9.48
5,Cc1cccc(C(=O)NN/C=C/C(=O)c2ccccc2)c1,6.9
6,O=C(NC(=S)NCc1ccccc1)c1cccs1,14.5
7,O=[N+]([O-])c1ccc(N2CCCCC2)nc1,7.55
8,CCOC(=O)c1cccc(C2=CC(=O)C[C@H](c3ccc(OC)c(OC)c3)C2)c1,0.164
9,Cl.O=C(NCCCNC(=O)c1cncc(O)c1)c1cncc(O)c1,17.1
10,CC(C)NC(=O)Cc1ccc(Br)cc1,9.11
11,COc1ccc(CN2CC[C@@H](N3CCOCC3)[C@H](O)C2)cc1F,6.81
12,COCC(=O)Nc1ccc(S(=O)(=O)Nc2nccs2)cc1,0.948
13,COc1ccc(NC(=O)CCNC(=O)c2ccco2)cc1S(=O)(=O)N(C)C,17.9
14,O=C(CCCCCNS(=O)(=O)c1ccc(Br)cc1)NCCN1CCOCC1,-7.77
15,Cc1[nH]c2ccccc2c1/C=N/NC(=O)Cc1cccs1,10.9
16,CCNc1ccc(C(=O)OCC(=O)NCCN2C(=O)CSC2=O)cc1[N+](=O)[O-],-0.485
17,Cc1ccc(S(=O)(=O)c2nnn3c2nc(N2CCOCC2)c2ccccc23)c(C)c1,4.67
18,O=C1NC(c2cn(-c3ccccc3)nc2-c2cccs2)C(C(=O)c2cccnc2)C(O)(C(F)(F)F)N1 (stereo not shown),9.86
19,Cc1ccccc1CS(=O)(=O)CCC(=O)N1CCN(c2ccc(N3CCOCC3)nn2)CC1,6.66
20,COc1ccc(Cl)cc1NC(=O)COC(=O)CNC(=O)C1CCCCC1,11.9
21,CCCC(c1nnnn1CCc1ccccc1)N1CCC(C(N)=O)CC1 (stereo not shown),11.5
22,COc1ccc(-n2c(=S)[nH]c3cc(C(=O)NCCCN4CCCC4=O)ccc3c2=O)cc1,13.9

row,SMILES,"hERG current change (%, negative = inhibition) at 1uM [%]"
1,N#CSCC(=O)N1c2ccccc2CCc2ccccc21,1.98
2,O=C(Nc1ccc(Cl)cc1)c1cc(-c2cccs2)on1,10.7
3,CCOC(=O)c1ccc(Oc2nc(N(C)C)nc(N3CCOCC3)n2)cc1,20.8
4,O=C(c1ccc(N2CCOCC2)c([N+](=O)[O-])c1)N1CCN(Cc2ccccc2)CC1,-33.7
5,CN1/C(=C/C=C(C#N)C#N)C=Cc2ccccc21,12.8
6,O=[N+]([O-])c1ccc(/C=N/NC2=NS(=O)(=O)c3ccccc32)cc1,11.9
7,CCOc1ccc2nc(NC(=O)CN3C(=O)NC4(CCCC4)C3=O)sc2c1,-4.2
8,CCOc1ccc(NC(=O)CCC(=O)NNC(=O)COc2ccc(C)cc2)cc1,6.23
9,COc1ccccc1NS(=O)(=O)c1cc2c3c(c1)CC(=O)N3CCC2,6.48
10,O=C(Nc1ncc(Cc2cccc(Cl)c2)s1)c1ccc([N+](=O)[O-])cc1,10.9
11,CNC(=S)Nc1ccc(Cc2ccncc2)cc1,10.7
12,COc1ccc(C(=O)O/N=C(\N)c2cccc(C)c2)cc1OC,11.9
13,Cc1ccc(-c2nc3cc(N)ccc3o2)cc1Br,13.7
14,Nc1c2c(nn1-c1ccc(F)cc1)CSC2,8.04
15,CCCCC(=O)Nc1nc2ccc(C(=O)OC)cc2s1,15.9
16,O=C(N/N=C/C=C/c1ccc(Br)cc1)C(O)c1ccccc1 (stereo not shown),9.32
17,Cc1c(C(=O)NC2CCCCC2)oc2c1C(=O)CC(C)(C)C2,15.9
18,O=c1oc2cc(O)ccc2c2oc3cc(O)ccc3c12,7.12
19,O=C(COc1ccc(Br)cc1)N1CCC(c2ccccc2)C1 (stereo not shown),3.98
20,CC(=O)Nc1ccccc1OP1(=O)COc2ccccc2OC1,7.81
21,O=C(O)CNC(=S)N(Cc1ccccc1Cl)C1CCCCC1,11.9
22,Cc1ccc(Cl)cc1NC(=O)CCCN1C(=O)c2cccnc2C1=O,1.06
